This is one part of the list. The list includes weakly bound sequences.
biological target: T1, MBP-FoxP3dN (UniProt Q99JB6); experiment: PD-seq (MBP pull-down with sequencing); conditions: 20 mM Tris-HCl pH 7.5, 100 mM NaCl, 1.5 mM MgCl2, 0.4 uM protein, 0.1 uM dsDNA library, 30 min, room temperature, amylose pull-down; high values mean tight binding; double strand, one strand shown
T1 sequence: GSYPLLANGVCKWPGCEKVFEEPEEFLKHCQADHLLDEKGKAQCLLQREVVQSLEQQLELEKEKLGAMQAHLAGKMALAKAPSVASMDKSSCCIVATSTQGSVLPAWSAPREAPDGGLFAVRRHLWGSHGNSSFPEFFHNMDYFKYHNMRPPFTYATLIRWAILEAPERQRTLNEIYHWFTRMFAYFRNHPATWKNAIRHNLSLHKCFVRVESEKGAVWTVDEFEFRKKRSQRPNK

Row | Sequence | binding signal (RPM ratio (pull-down/input))
1 | GATGATTGTTCTCCCAGCTGATGAATTGGTAGTTTCGAGTAAACAAATTTTCCTAATCTTTCTGTTCAAGCGCCATCTAC | 1.21
2 | GATGATTGTTCTCCCAGCTGATGAATTGCTCCAATCGAGTAAACAAATTTTCCTAATCTTTCTGTTCAAGCGCCATCTAC | 0.467
3 | GATGATTGTTCTCCCAGCTGATGAATTGGAACCCTCGAGTAAACAAATTTTCCTAATCTTTCTGTTCAAGCGCCATCTAC | 0.211
4 | GATGATTGTTCTCCCAGCTGATGAATTCAGCCTTTCGAGTAAACAAATTTTCCTAATCTTTCTGTTCAAGCGCCATCTAC | 4.58
5 | GATGATTGTTCTCCCAGCTGATGAATTCGTCTTTTCGAGTAAACAAATTTTCCTAATCTTTCTGTTCAAGCGCCATCTAC | 0.481
6 | GATGATTGTTCTCCCAGCTGATGAATTATATTGTTCGAGTAAACAAATTTTCCTAATCTTTCTGTTCAAGCGCCATCTAC | 5.32
7 | GATGATTGTTCTCCCAGCTGATGAATTGATAAATTCGAGTAAACAAATTTTCCTAATCTTTCTGTTCAAGCGCCATCTAC | 0.383
8 | GATGATTGTTCTCCCAGCTGATGAATTTTCCCAGTCGAGTAAACAAATTTTCCTAATCTTTCTGTTCAAGCGCCATCTAC | 0.176
9 | GATGATTGTTCTCCCAGCTGATGAATTTGGCAGATCGAGTAAACAAATTTTCCTAATCTTTCTGTTCAAGCGCCATCTAC | 0.404
10 | GATGATTGTTCTCCCAGCTGATGAATTCTTCATATCGAGTAAACAAATTTTCCTAATCTTTCTGTTCAAGCGCCATCTAC | 0.332
11 | GATGATTGTTCTCCCAGCTGATGAATTTTCTGGTTCGAGTAAACAAATTTTCCTAATCTTTCTGTTCAAGCGCCATCTAC | 0.267
12 | GATGATTGTTCTCCCAGCTGATGAATTACGGCCCTCGAGTAAACAAATTTTCCTAATCTTTCTGTTCAAGCGCCATCTAC | 0.475
13 | GATGATTGTTCTCCCAGCTGATGAATTCCTGACCTCGAGTAAACAAATTTTCCTAATCTTTCTGTTCAAGCGCCATCTAC | 0.191
14 | GATGATTGTTCTCCCAGCTGATGAATTGATAGAATCGAGTAAACAAATTTTCCTAATCTTTCTGTTCAAGCGCCATCTAC | 0.321
15 | GATGATTGTTCTCCCAGCTGATGAATTGCCTGCCTCGAGTAAACAAATTTTCCTAATCTTTCTGTTCAAGCGCCATCTAC | 0.923
16 | GATGATTGTTCTCCCAGCTGATGAATTTATATCATCGAGTAAACAAATTTTCCTAATCTTTCTGTTCAAGCGCCATCTAC | 1.52
17 | GATGATTGTTCTCCCAGCTGATGAATTTTTATGATCGAGTAAACAAATTTTCCTAATCTTTCTGTTCAAGCGCCATCTAC | 0.344
18 | GATGATTGTTCTCCCAGCTGATGAATTCGAATTGTCGAGTAAACAAATTTTCCTAATCTTTCTGTTCAAGCGCCATCTAC | 0.81
19 | GATGATTGTTCTCCCAGCTGATGAATTTGAGACGTCGAGTAAACAAATTTTCCTAATCTTTCTGTTCAAGCGCCATCTAC | 0.312
20 | GATGATTGTTCTCCCAGCTGATGAATTGCACAAATCGAGTAAACAAATTTTCCTAATCTTTCTGTTCAAGCGCCATCTAC | 0.672
21 | GATGATTGTTCTCCCAGCTGATGAATTCCGAGAGTCGAGTAAACAAATTTTCCTAATCTTTCTGTTCAAGCGCCATCTAC | 0.249

Row | Sequence | binding signal (RPM ratio (pull-down/input))
22 | GATGATTGTTCTCCCAGCTGATGAATTGTTGGAATCGAGTAAACAAATTTTCCTAATCTTTCTGTTCAAGCGCCATCTAC | 0.443
23 | GATGATTGTTCTCCCAGCTGATGAATTCATGACCTCGAGTAAACAAATTTTCCTAATCTTTCTGTTCAAGCGCCATCTAC | 0.359
24 | GATGATTGTTCTCCCAGCTGATGAATTGCCGCGCTCGAGTAAACAAATTTTCCTAATCTTTCTGTTCAAGCGCCATCTAC | 0.682
25 | GATGATTGTTCTCCCAGCTGATGAATTGGACTCTTCGAGTAAACAAATTTTCCTAATCTTTCTGTTCAAGCGCCATCTAC | 0.423
26 | GATGATTGTTCTCCCAGCTGATGAATTGAAAGATTCGAGTAAACAAATTTTCCTAATCTTTCTGTTCAAGCGCCATCTAC | 0.249
27 | GATGATTGTTCTCCCAGCTGATGAATTAGACAGATCGAGTAAACAAATTTTCCTAATCTTTCTGTTCAAGCGCCATCTAC | 0.246
28 | GATGATTGTTCTCCCAGCTGATGAATTTTAATACTCGAGTAAACAAATTTTCCTAATCTTTCTGTTCAAGCGCCATCTAC | 0.503
29 | GATGATTGTTCTCCCAGCTGATGAATTCAGGGCGTCGAGTAAACAAATTTTCCTAATCTTTCTGTTCAAGCGCCATCTAC | 0.456
30 | GATGATTGTTCTCCCAGCTGATGAATTGCTTGACTCGAGTAAACAAATTTTCCTAATCTTTCTGTTCAAGCGCCATCTAC | 0.629
31 | GATGATTGTTCTCCCAGCTGATGAATTATCCCATTCGAGTAAACAAATTTTCCTAATCTTTCTGTTCAAGCGCCATCTAC | 0.337
32 | GATGATTGTTCTCCCAGCTGATGAATTACCCCCATCGAGTAAACAAATTTTCCTAATCTTTCTGTTCAAGCGCCATCTAC | 0.332
33 | GATGATTGTTCTCCCAGCTGATGAATTTGCTGTTTCGAGTAAACAAATTTTCCTAATCTTTCTGTTCAAGCGCCATCTAC | 6.28
34 | GATGATTGTTCTCCCAGCTGATGAATTTGGACCGTCGAGTAAACAAATTTTCCTAATCTTTCTGTTCAAGCGCCATCTAC | 0.489
35 | GATGATTGTTCTCCCAGCTGATGAATTAGGTTTGTCGAGTAAACAAATTTTCCTAATCTTTCTGTTCAAGCGCCATCTAC | 2.95
36 | GATGATTGTTCTCCCAGCTGATGAATTGATCTCTTCGAGTAAACAAATTTTCCTAATCTTTCTGTTCAAGCGCCATCTAC | 0.317
37 | GATGATTGTTCTCCCAGCTGATGAATTGCAAGCATCGAGTAAACAAATTTTCCTAATCTTTCTGTTCAAGCGCCATCTAC | 1.48
38 | GATGATTGTTCTCCCAGCTGATGAATTGAAGCTGTCGAGTAAACAAATTTTCCTAATCTTTCTGTTCAAGCGCCATCTAC | 0.403
39 | GATGATTGTTCTCCCAGCTGATGAATTCTACAGGTCGAGTAAACAAATTTTCCTAATCTTTCTGTTCAAGCGCCATCTAC | 0.222
40 | GATGATTGTTCTCCCAGCTGATGAATTGGGCACATCGAGTAAACAAATTTTCCTAATCTTTCTGTTCAAGCGCCATCTAC | 0.783
41 | GATGATTGTTCTCCCAGCTGATGAATTGTATCCGTCGAGTAAACAAATTTTCCTAATCTTTCTGTTCAAGCGCCATCTAC | 0.998
42 | GATGATTGTTCTCCCAGCTGATGAATTCCAACCATCGAGTAAACAAATTTTCCTAATCTTTCTGTTCAAGCGCCATCTAC | 0.315

Row | Sequence | binding signal (RPM ratio (pull-down/input))
43 | GATGATTGTTCTCCCAGCTGATGAATTAGACGGCTCGAGTAAACAAATTTTCCTAATCTTTCTGTTCAAGCGCCATCTAC | 0.332
44 | GATGATTGTTCTCCCAGCTGATGAATTCCAACGTTCGAGTAAACAAATTTTCCTAATCTTTCTGTTCAAGCGCCATCTAC | 0.354
45 | GATGATTGTTCTCCCAGCTGATGAATTATGTCAATCGAGTAAACAAATTTTCCTAATCTTTCTGTTCAAGCGCCATCTAC | 0.834
46 | GATGATTGTTCTCCCAGCTGATGAATTATTTGTTTCGAGTAAACAAATTTTCCTAATCTTTCTGTTCAAGCGCCATCTAC | 4.2
47 | GATGATTGTTCTCCCAGCTGATGAATTTAAGTACTCGAGTAAACAAATTTTCCTAATCTTTCTGTTCAAGCGCCATCTAC | 0.809
48 | GATGATTGTTCTCCCAGCTGATGAATTTCGTAGTTCGAGTAAACAAATTTTCCTAATCTTTCTGTTCAAGCGCCATCTAC | 0.915
49 | GATGATTGTTCTCCCAGCTGATGAATTCGCCCAGTCGAGTAAACAAATTTTCCTAATCTTTCTGTTCAAGCGCCATCTAC | 0.243
50 | GATGATTGTTCTCCCAGCTGATGAATTAAGATGCTCGAGTAAACAAATTTTCCTAATCTTTCTGTTCAAGCGCCATCTAC | 1.12
51 | GATGATTGTTCTCCCAGCTGATGAATTGCGTCGGTCGAGTAAACAAATTTTCCTAATCTTTCTGTTCAAGCGCCATCTAC | 0.862
52 | GATGATTGTTCTCCCAGCTGATGAATTCATTCGCTCGAGTAAACAAATTTTCCTAATCTTTCTGTTCAAGCGCCATCTAC | 0.332
53 | GATGATTGTTCTCCCAGCTGATGAATTGCGGCGGTCGAGTAAACAAATTTTCCTAATCTTTCTGTTCAAGCGCCATCTAC | 0.612
54 | GATGATTGTTCTCCCAGCTGATGAATTGTCGGCTTCGAGTAAACAAATTTTCCTAATCTTTCTGTTCAAGCGCCATCTAC | 0.343
55 | GATGATTGTTCTCCCAGCTGATGAATTGTTACTTTCGAGTAAACAAATTTTCCTAATCTTTCTGTTCAAGCGCCATCTAC | 0.923
56 | GATGATTGTTCTCCCAGCTGATGAATTAAGCGGATCGAGTAAACAAATTTTCCTAATCTTTCTGTTCAAGCGCCATCTAC | 0.341
57 | GATGATTGTTCTCCCAGCTGATGAATTCGGAGACTCGAGTAAACAAATTTTCCTAATCTTTCTGTTCAAGCGCCATCTAC | 0.479
58 | GATGATTGTTCTCCCAGCTGATGAATTCACAATCTCGAGTAAACAAATTTTCCTAATCTTTCTGTTCAAGCGCCATCTAC | 0.439
59 | GATGATTGTTCTCCCAGCTGATGAATTAATATGGTCGAGTAAACAAATTTTCCTAATCTTTCTGTTCAAGCGCCATCTAC | 0.648
60 | GATGATTGTTCTCCCAGCTGATGAATTGACGTGGTCGAGTAAACAAATTTTCCTAATCTTTCTGTTCAAGCGCCATCTAC | 0.428
61 | GATGATTGTTCTCCCAGCTGATGAATTTCAGGACTCGAGTAAACAAATTTTCCTAATCTTTCTGTTCAAGCGCCATCTAC | 0.238
62 | GATGATTGTTCTCCCAGCTGATGAATTAAGATATTCGAGTAAACAAATTTTCCTAATCTTTCTGTTCAAGCGCCATCTAC | 0.69
63 | GATGATTGTTCTCCCAGCTGATGAATTAGGTCAGTCGAGTAAACAAATTTTCCTAATCTTTCTGTTCAAGCGCCATCTAC | 0.278
